Data on 6 molecules can be found in patent publication US20170152300A1 (CSL, published 2017).

Assay [1] has as its target T1, recombinant Factor VIII (as described in Zollner et al 2013) (Homo sapiens (Human), UniProt P00451 20-2351).
T1 construct: also called FVIII
T1 sequence: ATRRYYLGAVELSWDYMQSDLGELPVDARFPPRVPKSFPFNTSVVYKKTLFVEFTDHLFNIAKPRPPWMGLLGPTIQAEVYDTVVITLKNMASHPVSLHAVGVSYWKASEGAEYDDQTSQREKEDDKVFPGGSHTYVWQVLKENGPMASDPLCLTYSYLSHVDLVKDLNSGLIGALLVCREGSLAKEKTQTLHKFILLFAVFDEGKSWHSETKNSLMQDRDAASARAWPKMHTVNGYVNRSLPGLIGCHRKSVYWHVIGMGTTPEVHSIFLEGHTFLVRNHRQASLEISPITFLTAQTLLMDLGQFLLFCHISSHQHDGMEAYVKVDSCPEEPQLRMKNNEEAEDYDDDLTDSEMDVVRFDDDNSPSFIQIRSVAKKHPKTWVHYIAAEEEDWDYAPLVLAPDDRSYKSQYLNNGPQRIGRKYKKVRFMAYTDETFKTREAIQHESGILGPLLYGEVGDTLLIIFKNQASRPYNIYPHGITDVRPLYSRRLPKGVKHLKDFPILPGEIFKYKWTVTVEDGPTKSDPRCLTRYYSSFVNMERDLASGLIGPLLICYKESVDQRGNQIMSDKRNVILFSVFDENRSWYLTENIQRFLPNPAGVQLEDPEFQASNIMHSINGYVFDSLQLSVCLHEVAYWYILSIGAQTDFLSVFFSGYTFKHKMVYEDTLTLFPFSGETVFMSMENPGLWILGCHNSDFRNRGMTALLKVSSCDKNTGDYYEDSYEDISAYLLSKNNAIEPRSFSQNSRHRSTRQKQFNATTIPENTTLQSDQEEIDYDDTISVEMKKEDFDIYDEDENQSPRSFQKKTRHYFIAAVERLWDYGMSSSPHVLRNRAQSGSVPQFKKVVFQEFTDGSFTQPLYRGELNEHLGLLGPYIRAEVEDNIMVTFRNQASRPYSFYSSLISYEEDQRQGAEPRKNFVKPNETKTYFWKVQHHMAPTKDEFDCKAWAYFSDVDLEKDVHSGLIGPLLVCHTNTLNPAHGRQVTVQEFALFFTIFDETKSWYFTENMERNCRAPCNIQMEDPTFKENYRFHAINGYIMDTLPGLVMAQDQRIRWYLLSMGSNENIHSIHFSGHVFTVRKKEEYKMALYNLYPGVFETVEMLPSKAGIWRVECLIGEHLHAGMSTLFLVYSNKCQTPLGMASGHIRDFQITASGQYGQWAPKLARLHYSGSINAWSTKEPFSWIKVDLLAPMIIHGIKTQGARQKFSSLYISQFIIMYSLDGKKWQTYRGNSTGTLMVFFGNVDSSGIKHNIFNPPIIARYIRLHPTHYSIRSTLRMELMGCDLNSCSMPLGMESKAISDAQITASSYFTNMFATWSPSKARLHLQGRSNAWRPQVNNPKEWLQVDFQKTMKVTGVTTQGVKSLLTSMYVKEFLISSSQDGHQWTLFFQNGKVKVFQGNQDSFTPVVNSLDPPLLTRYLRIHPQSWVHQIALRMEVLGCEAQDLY
The assay is described as follows: SPR, anti-HSA capture, pH 7.3. The protocol: (§1) Mouse anti-HSA antibody was immobilized on a CMS chip using standard NHS/EDC coupling chemistry. Typically, the immobilization level was between 10,000 and 12,000 RU. Each batch of vWF-HSA (monomers and dimers) was captured on a single spot in each flow cell for 2 minutes at various concentrations ranging from 0.1-1 μg/ml. Capture levels ranged from 40-150RU. An adjacent spot in which anti-vWF was immobilized, but no vWF-HSA captured was used as a reference. Capture was performed every cycle, before FVIII binding analysis.
(§2) FVIII was injected at random and in duplicate over all spots in all flow cells at varying concentrations depending on the affinity of the interaction and the pH of the analysis. The association and dissociation of FVIII was monitored for various time frames that best suited the interaction taking place.
(§3) Post the dissociation period the surface was regenerated with a 30 second injection of 25 mM Glycine pH2.6. Running buffer throughout was 10 mM HEPES, 150 mM NaCl, 10 mM Na Citrate, 2.5 mM CaCl₂, 0.1% BSA, pH7.3 and pH5, while the flow rate was 30 μl/min. Each interaction was measured 4 times (n=4) at 37° C.

In assay [2] the target is T1, recombinant Factor VIII (as described …). In words: SPR, anti-HSA capture, pH 5.5. The protocol:
as §1, §2, §3

B1: vWF-HSA dimer S764Y-S766Y (other)
chain: YLYCRPPMVKLVCPADNLRAEGLECTKTCQNYDLECMSMGCVSGCLCPPGMVRHENRCVALERCPCFHQGKEYAPGETVKIGCNTCVCRDRKWNCTDHVCDATCSTIGMAHYLTFDGLKYLFPGECQYVLVQDYCGSNPGTFRILVGNKGCSHPSVKCKKRVTILVEGGEIELFDGEVNVKRPMKDETHFEVVESGRYIILLLGKALSVVWDRHLSISVVLKQTYQEKVCGLCGNFDGIQNNDLTSSNLQVEEDPVDFGNSWKVSSQCADTRKVPLDSSPATCHNNIMKQTMVDSSCRILTSDVFQDCNKLVDPEPYLDVCIYDTCSCESIGDCACFCDTIAAYAHVCAQHGKVVTWRTATLCPQSCEERNLRENGYECEWRYNSCAPACQVTCQHPEPLACPVQCVEGCHAHCPPGKILDELLQTCVDPEDCPVCEVAGRRFASGKKVTLNPSDPEHCQICHCDVVNLTCEACQEPGG[about 600 residues skipped]
Take B1: in assay [1], the Kd was determined as 30.7 pM, the koff worked out at 0.000334 s⁻¹ and the association rate constant (kon) came out at 1.14e+07 M⁻¹ s⁻¹. For the same molecule, in assay [2], the dissociation constant (Kd) turned out to be 1070 pM, the koff was 0.00345 s⁻¹ and the kon turned out to be 3.22e+06 M⁻¹ s⁻¹.

B2: vWF-HSA dimer S766Y (other)
chain: SLYCRPPMVKLVCPADNLRAEGLECTKTCQNYDLECMSMGCVSGCLCPPGMVRHENRCVALERCPCFHQGKEYAPGETVKIGCNTCVCRDRKWNCTDHVCDATCSTIGMAHYLTFDGLKYLFPGECQYVLVQDYCGSNPGTFRILVGNKGCSHPSVKCKKRVTILVEGGEIELFDGEVNVKRPMKDETHFEVVESGRYIILLLGKALSVVWDRHLSISVVLKQTYQEKVCGLCGNFDGIQNNDLTSSNLQVEEDPVDFGNSWKVSSQCADTRKVPLDSSPATCHNNIMKQTMVDSSCRILTSDVFQDCNKLVDPEPYLDVCIYDTCSCESIGDCACFCDTIAAYAHVCAQHGKVVTWRTATLCPQSCEERNLRENGYECEWRYNSCAPACQVTCQHPEPLACPVQCVEGCHAHCPPGKILDELLQTCVDPEDCPVCEVAGRRFASGKKVTLNPSDPEHCQICHCDVVNLTCEACQEPGG[about 600 residues skipped]
Take B2: in assay [1], the equilibrium dissociation constant (Kd) came out at 25.1 pM, the koff is 0.000236 s⁻¹ and the on-rate (kon) was determined as 1.03e+07 M⁻¹ s⁻¹. Further, in assay [2], the Kd is 2920 pM, the off-rate (koff) came out at 0.0074 s⁻¹ and the kon stood at 3.5e+06 M⁻¹ s⁻¹.

B3: vWF-HSA dimer S766Y-S769N (other)
chain: SLYCRNPMVKLVCPADNLRAEGLECTKTCQNYDLECMSMGCVSGCLCPPGMVRHENRCVALERCPCFHQGKEYAPGETVKIGCNTCVCRDRKWNCTDHVCDATCSTIGMAHYLTFDGLKYLFPGECQYVLVQDYCGSNPGTFRILVGNKGCSHPSVKCKKRVTILVEGGEIELFDGEVNVKRPMKDETHFEVVESGRYIILLLGKALSVVWDRHLSISVVLKQTYQEKVCGLCGNFDGIQNNDLTSSNLQVEEDPVDFGNSWKVSSQCADTRKVPLDSSPATCHNNIMKQTMVDSSCRILTSDVFQDCNKLVDPEPYLDVCIYDTCSCESIGDCACFCDTIAAYAHVCAQHGKVVTWRTATLCPQSCEERNLRENGYECEWRYNSCAPACQVTCQHPEPLACPVQCVEGCHAHCPPGKILDELLQTCVDPEDCPVCEVAGRRFASGKKVTLNPSDPEHCQICHCDVVNLTCEACQEPGG[about 600 residues skipped]
notes: printed 'S766Y-S769N', read as S766Y/P769N
As for B3, in assay [1], the Kd is 28.9 pM, the koff was 0.000348 s⁻¹ and the on-rate constant (kon) worked out at 1.21e+07 M⁻¹ s⁻¹. In addition, in assay [2], the dissociation constant Kd was 5010 pM, the off-rate constant (koff) came to 0.0102 s⁻¹ and the kon was 2.05e+06 M⁻¹ s⁻¹.

B4: vWF-HSA dimer S766Y-P769K (other)
chain: SLYCRKPMVKLVCPADNLRAEGLECTKTCQNYDLECMSMGCVSGCLCPPGMVRHENRCVALERCPCFHQGKEYAPGETVKIGCNTCVCRDRKWNCTDHVCDATCSTIGMAHYLTFDGLKYLFPGECQYVLVQDYCGSNPGTFRILVGNKGCSHPSVKCKKRVTILVEGGEIELFDGEVNVKRPMKDETHFEVVESGRYIILLLGKALSVVWDRHLSISVVLKQTYQEKVCGLCGNFDGIQNNDLTSSNLQVEEDPVDFGNSWKVSSQCADTRKVPLDSSPATCHNNIMKQTMVDSSCRILTSDVFQDCNKLVDPEPYLDVCIYDTCSCESIGDCACFCDTIAAYAHVCAQHGKVVTWRTATLCPQSCEERNLRENGYECEWRYNSCAPACQVTCQHPEPLACPVQCVEGCHAHCPPGKILDELLQTCVDPEDCPVCEVAGRRFASGKKVTLNPSDPEHCQICHCDVVNLTCEACQEPGG[about 600 residues skipped]
For the molecule B4, in assay [1], the dissociation constant Kd is 26.8 pM, the dissociation rate constant (koff) was 0.000285 s⁻¹ and the association rate constant (kon) amounted to 1.09e+07 M⁻¹ s⁻¹. Also, in assay [2], the Kd was determined as 1790 pM, the off-rate (koff) was 0.0074 s⁻¹ and the association rate constant (kon) worked out at 4.14e+06 M⁻¹ s⁻¹.

B5: vWF-HSA dimer S766W-S806A (other)
chain: SLWCRPPMVKLVCPADNLRAEGLECTKTCQNYDLECMSMGCVAGCLCPPGMVRHENRCVALERCPCFHQGKEYAPGETVKIGCNTCVCRDRKWNCTDHVCDATCSTIGMAHYLTFDGLKYLFPGECQYVLVQDYCGSNPGTFRILVGNKGCSHPSVKCKKRVTILVEGGEIELFDGEVNVKRPMKDETHFEVVESGRYIILLLGKALSVVWDRHLSISVVLKQTYQEKVCGLCGNFDGIQNNDLTSSNLQVEEDPVDFGNSWKVSSQCADTRKVPLDSSPATCHNNIMKQTMVDSSCRILTSDVFQDCNKLVDPEPYLDVCIYDTCSCESIGDCACFCDTIAAYAHVCAQHGKVVTWRTATLCPQSCEERNLRENGYECEWRYNSCAPACQVTCQHPEPLACPVQCVEGCHAHCPPGKILDELLQTCVDPEDCPVCEVAGRRFASGKKVTLNPSDPEHCQICHCDVVNLTCEACQEPGG[about 600 residues skipped]
Turning to B5, in assay [1], the Kd is 35.4 pM, the off-rate constant (koff) turned out to be 0.0003 s⁻¹ and the kon was 8.88e+06 M⁻¹ s⁻¹. In assay [2], the equilibrium dissociation constant (Kd) is 14300 pM, the koff came out at 0.014 s⁻¹ and the kon turned out to be 813000 M⁻¹ s⁻¹.

B6: vWF-HSA dimer S766Y-P769R (other)
chain: SLYCRRPMVKLVCPADNLRAEGLECTKTCQNYDLECMSMGCVSGCLCPPGMVRHENRCVALERCPCFHQGKEYAPGETVKIGCNTCVCRDRKWNCTDHVCDATCSTIGMAHYLTFDGLKYLFPGECQYVLVQDYCGSNPGTFRILVGNKGCSHPSVKCKKRVTILVEGGEIELFDGEVNVKRPMKDETHFEVVESGRYIILLLGKALSVVWDRHLSISVVLKQTYQEKVCGLCGNFDGIQNNDLTSSNLQVEEDPVDFGNSWKVSSQCADTRKVPLDSSPATCHNNIMKQTMVDSSCRILTSDVFQDCNKLVDPEPYLDVCIYDTCSCESIGDCACFCDTIAAYAHVCAQHGKVVTWRTATLCPQSCEERNLRENGYECEWRYNSCAPACQVTCQHPEPLACPVQCVEGCHAHCPPGKILDELLQTCVDPEDCPVCEVAGRRFASGKKVTLNPSDPEHCQICHCDVVNLTCEACQEPGG[about 600 residues skipped]
Consider B6, for which, in assay [1], the equilibrium dissociation constant (Kd) was 23.2 pM, the koff amounted to 0.000275 s⁻¹ and the kon amounted to 1.18e+07 M⁻¹ s⁻¹. Moreover, in assay [2], the Kd was determined as 1400 pM, the koff was determined as 0.00654 s⁻¹ and the kon turned out to be 4.66e+06 M⁻¹ s⁻¹.
